Over roughly 18,000 sequences, “TetR repression strength (sort-seq, GFP reporter)” has its median near 0.23; the highest 2% begin near 0.68. The list shows a part of the results.
These sequences were tested against TetR (class B, Tn10) (UniProt P04483) (assay: TetR repression strength (sort-seq, GFP reporter) (relative to tetO2 = 1); higher = stronger repression). Settings: E. coli.
Method in brief: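 Repression strength is the top bin index plus one minus the read-weighted mean bin, relative to the unaltered operator's value. A low-copy library in E. coli SIG10-MAX randomized eight operator positions between a constitutive promoter and sfGFP, with TetR expressed constitutively; cells grew 5 h at 37 °C in LB with 50 µg/mL chloramphenicol and 10^6 were FACS-sorted into 13 bins that were each Illumina-sequenced. Three independent transformations were averaged, keeping only members with ≥30 reads in all replicates and CV ≤0.5.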

Chain of UniProt P04483 (P04483 whole entry): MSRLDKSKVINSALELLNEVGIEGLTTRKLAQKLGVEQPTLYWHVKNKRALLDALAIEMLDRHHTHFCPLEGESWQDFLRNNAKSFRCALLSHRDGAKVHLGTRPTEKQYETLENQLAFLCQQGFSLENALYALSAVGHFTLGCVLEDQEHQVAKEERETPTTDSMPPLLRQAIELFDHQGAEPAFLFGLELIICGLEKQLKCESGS

Row | Sequence | TetR repression strength
1 | TCCCCTAAAGTCCATGAGA | 0.258
2 | TCCCGGTCAGTTCTAGAGA | 0.362
3 | TCCCATGGAGTCCGGGAGA | 0.192
4 | TCCCTTAGAGTTGTAGAGA | 0.188
5 | TCCCGGGGAGTATTCGAGA | 0.235
6 | TCCCTATTAGTGACTGAGA | 0.345
7 | TCCCGTTCAGTGGGGGAGA | 0.277
8 | TCCCCGAGAGTGCCAGAGA | 0.411
9 | TCCCTATAAGTTATAGAGA | 0.651
10 | TCCCATTAAGTAGGAGAGA | 0.2
11 | TCCCGGGCAGTGAGGGAGA | 0.659
12 | TCCCTGGAAGTTTGGGAGA | 0.178
13 | TCCCGTTCAGTGAGAGAGA | 0.516
14 | TCCCTTGTAGTTCGCGAGA | 0.153
15 | TCCCGTGAAGTCGAGGAGA | 0.0928
16 | TCCCCGGGAGTGTATGAGA | 0.232
17 | TCCCATCGAGTACGGGAGA | 0.185
18 | TCCCCACAAGTATCAGAGA | 0.752
19 | TCCCGTAAAGTGATCGAGA | 0.127
20 | TCCCTCCGAGTTCATGAGA | 0.272
21 | TCCCGAACAGTTTTAGAGA | 0.248
22 | TCCCGCCCAGTTCTAGAGA | 0.43
23 | TCCCATGTAGTATGGGAGA | 0.283
24 | TCCCGGCGAGTATTGGAGA | 0.266
25 | TCCCCTGGAGTCTCTGAGA | 0.19
26 | TCCCCCACAGTGAGGGAGA | 0.311

Row | Sequence | TetR repression strength
27 | TCCCGGCGAGTTACCGAGA | 0.287
28 | TCCCTAGAAGTGCGTGAGA | 0.176
29 | TCCCTGGGAGTGTAGGAGA | 0.233
30 | TCCCGCCCAGTGGGCGAGA | 0.175
31 | TCCCCCCCAGTGCAGGAGA | 0.292
32 | TCCCATGTAGTGAGAGAGA | 0.17
33 | TCCCGACGAGTCGCGGAGA | 0.179
34 | TCCCTCTCAGTACACGAGA | 0.458
35 | TCCCTGCCAGTGATAGAGA | 0.646
36 | TCCCGATTAGTAGGGGAGA | 0.844
37 | TCCCTGGCAGTGGGGGAGA | 0.247
38 | TCCCTCGGAGTGATTGAGA | 0.359
39 | TCCCAGTGAGTCAGTGAGA | 0.157
40 | TCCCGATGAGTCCGCGAGA | 0.0471
41 | TCCCAATTAGTTGTTGAGA | 0.119
42 | TCCCTACGAGTATTAGAGA | 0.00415
43 | TCCCTAGGAGTCAACGAGA | 0.3
44 | TCCCTGAGAGTGGTCGAGA | 0.299
45 | TCCCTATTAGTATGAGAGA | 0.278
46 | TCCCGCCCAGTTGAGGAGA | 0.175
47 | TCCCGGGAAGTTGGAGAGA | 0.199
48 | TCCCATAAAGTGGGAGAGA | 0
49 | TCCCCGCCAGTGGGTGAGA | 0.198
50 | TCCCAAAAAGTCCATGAGA | 0.188
51 | TCCCCTCCAGTGCGGGAGA | 0.148
52 | TCCCGGGCAGTGTGCGAGA | 0.301

Row | Sequence | TetR repression strength
53 | TCCCTTCGAGTATATGAGA | 0.444
54 | TCCCCGTCAGTTCGAGAGA | 0.213
55 | TCCCGTCGAGTCGACGAGA | 0.303
56 | TCCCCGCAAGTGCCTGAGA | 0.285
57 | TCCCACGAAGTGCGAGAGA | 0.0666
58 | TCCCAACCAGTTCAGGAGA | 0.17
59 | TCCCAGGGAGTTTAAGAGA | 0.231
60 | TCCCCTACAGTGGTGGAGA | 0.319
61 | TCCCCGAAAGTGAGGGAGA | 0.0354
62 | TCCCACGTAGTTGGGGAGA | 0.262
63 | TCCCTGGCAGTTAGTGAGA | 0.218
64 | TCCCGCTCAGTGAACGAGA | 0.432
65 | TCCCGATGAGTTAGAGAGA | 0.749
66 | TCCCGCATAGTTGGCGAGA | 0.272
67 | TCCCGGGGAGTTCTAGAGA | 0.432
68 | TCCCGGCTAGTGTCAGAGA | 0.196
69 | TCCCTCATAGTAGGGGAGA | 0.146
70 | TCCCCTGCAGTCCTAGAGA | 0.23
71 | TCCCGGGCAGTTGGAGAGA | 0.57
72 | TCCCCTAAAGTAGTCGAGA | 0.144
73 | TCCCAAAAAGTTCCGGAGA | 0.0327
74 | TCCCAAACAGTGCAAGAGA | 0.415
75 | TCCCAGGGAGTACAGGAGA | 0.24
76 | TCCCTCGAAGTGCTTGAGA | 0.406
77 | TCCCACATAGTAAGTGAGA | 0.207
78 | TCCCTCCTAGTGCGCGAGA | 0.494

Row | Sequence | TetR repression strength
79 | TCCCAGAAAGTCGAAGAGA | 0.311
80 | TCCCGATAAGTACCGGAGA | 0.0834
81 | TCCCGTTCAGTGGTGGAGA | 0.22
82 | TCCCTGGGAGTGTAAGAGA | 0.187
83 | TCCCTGAGAGTGGGTGAGA | 0.226
84 | TCCCGTTCAGTGACAGAGA | 0.504
85 | TCCCCGAAAGTTGTTGAGA | 0.435
86 | TCCCGTCCAGTGTGGGAGA | 0.295
87 | TCCCTTTTAGTGTGGGAGA | 0.317
88 | TCCCGGTCAGTCGTGGAGA | 0.239
89 | TCCCTGAGAGTCTGCGAGA | 0.203
90 | TCCCGAGTAGTGATTGAGA | 0.527
91 | TCCCTGGGAGTTAATGAGA | 0.427
92 | TCCCTAAGAGTTATCGAGA | 0.147
93 | TCCCCGTTAGTGGAAGAGA | 0.115
94 | TCCCATACAGTGCGTGAGA | 0.212
95 | TCCCGATGAGTGCCCGAGA | 0.147
96 | TCCCCCCCAGTCGTGGAGA | 0.277
97 | TCCCTTGGAGTGAGGGAGA | 0.495
98 | TCCCAGCCAGTACTTGAGA | 0.149
99 | TCCCGCGCAGTGTTCGAGA | 0.18
100 | TCCCGGCCAGTGGGGGAGA | 0.268
101 | TCCCGTTTAGTGGATGAGA | 0.0216
102 | TCCCATCCAGTTTGTGAGA | 0.104

From a collection of fitness landscapes (doi:10.1038/s41467-024-54723-y)
